Molecules are shown by their SMILES. About 540 (0.36%) of roughly 150,000 compounds showed an effect of 50% or more. The list shows a part of the results.

Broadly, the % Inhibition is the drop in the measured response relative to a control, in per cent.

The test has as its system Plasmodium falciparum. Kind of test: Primary screen in NF54 nanoGlo assay, in single point, at 2uM, 72h; a lower Z score goes with more inhibition. The format is functional, Erythrocyte. The following applies: timepoint 72 hour.
On to `O=C1c2ccccc2C(=O)N1n1c(COc2ccccc2)nc2ccccc2c1=O`, for which the “% Inhibition” value is recorded as -41% and the Z score stood at 4.8.
For the compound `CC[C@H](NC(=O)c1cnc2ccccn2c1=O)c1ccc(S(C)(=O)=O)cc1`, the “% Inhibition” value was 0% and the Z score is on record as 0.05.
Regarding `Fc1cccc(-c2cc3c(N4CCOCC4)nccn3n2)c1`, the “% Inhibition” value amounted to 11% and the Z score is reported as -1.25.
In the case of `Cc1cccc(NC(=O)c2cccc(Nc3nc(-c4ccccc4)c4cc(Br)ccc4n3)c2)c1`, the “% Inhibition” value is -7% and the Z score amounted to 1.22.
For `Cc1ccc(-c2cc(NCc3ccncc3)nc3[nH]ccc23)c(C)n1`, in that order: -14% and 1.4.
For `CCC1Oc2cc(S(=O)(=O)N3CCCC(C(=O)NCc4cccnc4)C3)c(C)cc2NC1=O` (configuration not stated), in that order: -14% and 1.68.
Consider `Cc1nc2nc(C3CCCCC3)nn2c(C)c1CC(=O)Nc1ccccc1`, for which the “% Inhibition” value is recorded as -11% and the Z score was 1.31.
The corresponding values for `CC(C)n1c(=O)sc2cc(NS(=O)(=O)c3cccc(F)c3)ccc21` are -1% and 0.13.
`O=C(Cc1cccc(C(F)(F)F)n1)Nc1nc(C2CC2)c[nH]1`: the “% Inhibition” value is -7% and the Z score is given as 0.89.
For `O=C(OCc1cncs1)c1ccccc1`, the “% Inhibition” value is 33% and the Z score is on record as -0.95.
For `O=C(Nc1ccc2ccccc2c1)c1ccc(OC(=S)Nc2ccc(Br)cc2)cc1`, in that order: 9% and -1.34.
For the compound `O=S(=O)(Cc1cccc(F)c1)Cc1cc(-c2ccccc2)on1`, the “% Inhibition” value was determined as 1% and the Z score is -0.07.
The corresponding values for `Cn1nccc1C(=O)NCCn1ccc2ccoc2c1=O` are -12% and 2.04.
Turning to `Cc1cccc2[nH]cc(Cc3nc4ccccc4c(=O)[nH]3)c12`, the “% Inhibition” value is on record as -14% and the Z score was determined as 1.19.
As to `Cn1nc(O)cc1-c1ccc(Cl)cc1F`, the “% Inhibition” value is given as -13% and the Z score amounted to 1.58.
For `Cc1nnc(N(C)Cc2ncc[nH]2)c(C#N)c1C`, in that order: -2% and 0.19.
For `Cc1cnc(CN(CCCO)Cc2ccccc2Cl)cn1`, in that order: 9% and -1.13.
The corresponding values for `O=C1NCCCc2[nH]c(CCn3nnc4ccccc43)nc21` are -8% and 1.5.
For `COc1ccccc1C(=O)N1CCN(c2nc3ccc(C)cc3c3nnc(C4CCCCC4)n23)C[C@@H]1C`, the “% Inhibition” value is -7% and the Z score is given as 0.86.
The corresponding values for `Cc1ccccc1NC(=O)N1CCc2nc(-c3ccccc3)nc(N3CCCC3)c2C1` are -8% and 1.11.
For `O=C(c1ccc(=O)[nH]n1)N1CC(Oc2cccnc2)C1`, in that order: -7% and 1.28.
The corresponding values for `COC(=O)C12CCCC1CN(CC(=O)N1CCCCC1)C2` (configuration not stated) are -1% and 0.09.
With `COCC(=O)N1CCC(NC(=O)N2C3CCC2CC2(CC2)C3)CC1`, the “% Inhibition” value is 14% and the Z score is reported as -1.75.
For `CC[C@@H](C(=O)NC1(c2cc(F)ccc2F)CC1)N(C)CC`, in that order: 1% and -0.15.
Regarding `NC[C@H]1CCN(Cc2cnc(-c3cccc4ccccc34)nc2)C1`, the “% Inhibition” value amounted to 5% and the Z score is -0.78.
Consider `Cc1cc(NC(=O)N[C@@H](Cc2ccccc2)c2n[nH]c(=O)[nH]2)nn1C`, for which the “% Inhibition” value was -7% and the Z score came out at 0.88.
As to `COc1ccc(CNC(=O)[C@H]2CCCN(c3nnc4ccccn34)C2)c(OC)c1`, the “% Inhibition” value was -6% and the Z score came to 0.65.
The corresponding values for `CCN1CCN(C[C@@H]2CN(Cc3cccc(Cl)c3Cl)C[C@@H]2CO)CC1` are 0% and 0.02.
For `Cc1ncc2n1CC[C@H](C(=O)N(C)c1cnn(C)c1)C2`, in that order: -6% and 0.81.
For `CCN(CC)[C@@]1(c2nnnn2C2CCCC2)CCN(C(=O)Cn2ccnc2C)C1`, in that order: -20% and 2.28.
For `COC(=O)C(c1cc(F)c(F)c(F)c1)N(C)CCN1CCOCC1C` (configuration not stated), the “% Inhibition” value was -9% and the Z score stood at 1.22.
For `Clc1cnccc1CNC1(c2noc(C3CC3)n2)CCCC1`, in that order: 7% and -1.11.
Take `Cc1nc(C(=O)NCCCn2ccnc2)c(Cc2ccccc2)s1`: the “% Inhibition” value was 3% and the Z score was -0.49.
`CC(C)CN1CCN([C@H]2CCOC3(CCN(C(=O)c4cc5ccccc5[nH]4)CC3)C2)CC1`: the “% Inhibition” value is reported as -7% and the Z score came to 1.25.
Take `Cc1cccc(-c2nc(Cn3nnc(-c4nc(-c5ccc(OC(C)C)cc5)no4)c3C)c(C)o2)c1`: the “% Inhibition” value was -7% and the Z score is listed as 0.94.
Take `CC[C@H]1COCCN1C(=O)c1coc(CN2CCN(Cc3ccccc3)CC2)n1`: the “% Inhibition” value was 3% and the Z score was -0.51.
Turning to `O=C(NCC1CCN(C(=O)c2cnc[nH]2)CC1)c1ccoc1`, the “% Inhibition” value is on record as -11% and the Z score worked out at 1.1.
For `Cc1nc(CC2CCCN(C(=O)NC(C)c3ccc(C)c(F)c3)C2)no1` (configuration not stated), in that order: -12% and 1.25.
The corresponding values for `CCC(=O)Nc1cccc(-c2noc(C3CCN(C(=O)c4ccc(F)c(F)c4)CC3)n2)c1` are -1% and 0.11.
The corresponding values for `C=CCN1CCN(C(=O)[C@H](C)Oc2cccc3ccccc23)CC1` are -4% and 0.8.
On to `COc1ccc(C(=O)N2C[C@@H]3CN(C(=O)C(C)C)C[C@]3(C(=O)N3CCCC3)C2)c(OC)c1`, for which the “% Inhibition” value is -3% and the Z score is 0.59.

The values are drawn from ChEMBL document CHEMBL4888484, “Replenishing the malaria drug discovery pipeline: Screening and hit evaluation of the MMV Hit Generation Library 1 (HGL1) against asexual blood stage Plasmodium falciparum ,using a nano luciferase reporter read-out” (2022).
